The values below come from article PMC12820563, “FoxP3 forms a head-to-head dimer in vivo and stabilizes its multimerization on adjacent microsatellites”.

The other results are listed elsewhere or left out.

The assay deals with T1, MBP-FoxP1dN (Mus musculus, UniProt P58462 326-579).
T1 sequence: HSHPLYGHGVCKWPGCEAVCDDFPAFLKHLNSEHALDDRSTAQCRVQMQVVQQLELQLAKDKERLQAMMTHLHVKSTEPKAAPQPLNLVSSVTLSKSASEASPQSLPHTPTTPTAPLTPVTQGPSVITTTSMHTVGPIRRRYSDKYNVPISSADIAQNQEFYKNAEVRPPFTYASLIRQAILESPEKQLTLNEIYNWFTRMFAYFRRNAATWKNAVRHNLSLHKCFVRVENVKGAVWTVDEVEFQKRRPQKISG
Kind of assay: PD-seq (MBP pull-down with sequencing); 20 mM Tris-HCl pH 7.5, 100 mM NaCl, 1.5 mM MgCl2, 0.4 uM protein, 0.1 uM dsDNA library, 30 min, room temperature, amylose pull-down; high values mean tight binding. Particulars: protein: recombinant; tags: His6-MBP; chain copies: 2; dsDNA, one strand shown. The method in brief: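 A fragment of mouse FoxP3 or FoxP1 without its N-terminus, carrying a His6-MBP tag and produced in E. coli, was combined at 0.4 µM with a 0.1 µM degenerate double-stranded DNA library filled in with Klenow. The mixture sat for 30 min at room temperature in Tris pH 7.5 buffer containing NaCl and MgCl2. Protein–DNA complexes were captured on amylose resin, washed three times, and the DNA was freed with proteinase K, barcoded by PCR and sequenced on Illumina. Binding is expressed as reads-per-million enrichment of pull-down over input, with replicates pooled.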
On to “GATGATTGTTCTCCCAGCTGATGAATTATAACTATCGAGTAAACAAATTTTCCTAATCTTTCTGTTCAAGCGCCATCTAC”, for which the binding signal is 1.07 RPM ratio (pull-down/input).
For “GATGATTGTTCTCCCAGCTGATGAATTCGCTACTTCGAGTAAACAAATTTTCCTAATCTTTCTGTTCAAGCGCCATCTAC”, the binding signal is 0.872 RPM ratio (pull-down/input).
Turning to “GATGATTGTTCTCCCAGCTGATGAATTTGCCACCTCGAGTAAACAAATTTTCCTAATCTTTCTGTTCAAGCGCCATCTAC”, the binding signal was 0.982 RPM ratio (pull-down/input).
With “GATGATTGTTCTCCCAGCTGATGAATTCGGCTACTCGAGTAAACAAATTTTCCTAATCTTTCTGTTCAAGCGCCATCTAC”, the binding signal is 0.808 RPM ratio (pull-down/input).
Regarding “GATGATTGTTCTCCCAGCTGATGAATTAATAGAATCGAGTAAACAAATTTTCCTAATCTTTCTGTTCAAGCGCCATCTAC”, the binding signal was 1.01 RPM ratio (pull-down/input).
As for “GATGATTGTTCTCCCAGCTGATGAATTCAGGTTCTCGAGTAAACAAATTTTCCTAATCTTTCTGTTCAAGCGCCATCTAC”, the binding signal is 0.857 RPM ratio (pull-down/input).
On to “GATGATTGTTCTCCCAGCTGATGAATTCAATCTATCGAGTAAACAAATTTTCCTAATCTTTCTGTTCAAGCGCCATCTAC”, for which the binding signal was 0.893 RPM ratio (pull-down/input).
For “GATGATTGTTCTCCCAGCTGATGAATTGACCGCCTCGAGTAAACAAATTTTCCTAATCTTTCTGTTCAAGCGCCATCTAC”, the binding signal was 0.854 RPM ratio (pull-down/input).
The value for “GATGATTGTTCTCCCAGCTGATGAATTTACGGTCTCGAGTAAACAAATTTTCCTAATCTTTCTGTTCAAGCGCCATCTAC” was 1.02 RPM ratio (pull-down/input); that for “GATGATTGTTCTCCCAGCTGATGAATTCTTCGCCTCGAGTAAACAAATTTTCCTAATCTTTCTGTTCAAGCGCCATCTAC” was 0.881 RPM ratio (pull-down/input); that for “GATGATTGTTCTCCCAGCTGATGAATTCCGATCTTCGAGTAAACAAATTTTCCTAATCTTTCTGTTCAAGCGCCATCTAC” was 0.773 RPM ratio (pull-down/input).
As for “GATGATTGTTCTCCCAGCTGATGAATTCGGAACGTCGAGTAAACAAATTTTCCTAATCTTTCTGTTCAAGCGCCATCTAC”, the binding signal is 0.811 RPM ratio (pull-down/input).
The value for “GATGATTGTTCTCCCAGCTGATGAATTATGCTGCTCGAGTAAACAAATTTTCCTAATCTTTCTGTTCAAGCGCCATCTAC” was 1.03 RPM ratio (pull-down/input).
With “GATGATTGTTCTCCCAGCTGATGAATTACGGGGTTCGAGTAAACAAATTTTCCTAATCTTTCTGTTCAAGCGCCATCTAC”, the binding signal is 0.931 RPM ratio (pull-down/input).
To “GATGATTGTTCTCCCAGCTGATGAATTGTGGAGATCGAGTAAACAAATTTTCCTAATCTTTCTGTTCAAGCGCCATCTAC” belongs 0.948 RPM ratio (pull-down/input).
Turning to “GATGATTGTTCTCCCAGCTGATGAATTCGCGCGGTCGAGTAAACAAATTTTCCTAATCTTTCTGTTCAAGCGCCATCTAC”, the binding signal is 0.853 RPM ratio (pull-down/input).
Regarding “GATGATTGTTCTCCCAGCTGATGAATTCCAAGTCTCGAGTAAACAAATTTTCCTAATCTTTCTGTTCAAGCGCCATCTAC”, the binding signal was 0.7 RPM ratio (pull-down/input).
For the sequence “GATGATTGTTCTCCCAGCTGATGAATTCGCTGGATCGAGTAAACAAATTTTCCTAATCTTTCTGTTCAAGCGCCATCTAC”, the binding signal is 0.878 RPM ratio (pull-down/input).
To “GATGATTGTTCTCCCAGCTGATGAATTCGGCTGTTCGAGTAAACAAATTTTCCTAATCTTTCTGTTCAAGCGCCATCTAC” belongs 0.85 RPM ratio (pull-down/input); to “GATGATTGTTCTCCCAGCTGATGAATTTCGTTTTTCGAGTAAACAAATTTTCCTAATCTTTCTGTTCAAGCGCCATCTAC”, 1.02 RPM ratio (pull-down/input).
As to “GATGATTGTTCTCCCAGCTGATGAATTGCGGAAGTCGAGTAAACAAATTTTCCTAATCTTTCTGTTCAAGCGCCATCTAC”, the binding signal was 1.03 RPM ratio (pull-down/input).
On to “GATGATTGTTCTCCCAGCTGATGAATTTGCTCTCTCGAGTAAACAAATTTTCCTAATCTTTCTGTTCAAGCGCCATCTAC”, for which the binding signal is 0.873 RPM ratio (pull-down/input).
Regarding “GATGATTGTTCTCCCAGCTGATGAATTCTAAAACTCGAGTAAACAAATTTTCCTAATCTTTCTGTTCAAGCGCCATCTAC”, the binding signal is 0.844 RPM ratio (pull-down/input).
Turning to “GATGATTGTTCTCCCAGCTGATGAATTAGAGTAGTCGAGTAAACAAATTTTCCTAATCTTTCTGTTCAAGCGCCATCTAC”, the binding signal is 0.974 RPM ratio (pull-down/input).
For the sequence “GATGATTGTTCTCCCAGCTGATGAATTAGGGGACTCGAGTAAACAAATTTTCCTAATCTTTCTGTTCAAGCGCCATCTAC”, the binding signal is 0.833 RPM ratio (pull-down/input).
“GATGATTGTTCTCCCAGCTGATGAATTGTGAGTCTCGAGTAAACAAATTTTCCTAATCTTTCTGTTCAAGCGCCATCTAC”: the binding signal was 0.952 RPM ratio (pull-down/input).
To “GATGATTGTTCTCCCAGCTGATGAATTTCAGTAATCGAGTAAACAAATTTTCCTAATCTTTCTGTTCAAGCGCCATCTAC” belongs 1.32 RPM ratio (pull-down/input); to “GATGATTGTTCTCCCAGCTGATGAATTTTCCACATCGAGTAAACAAATTTTCCTAATCTTTCTGTTCAAGCGCCATCTAC”, 1.11 RPM ratio (pull-down/input).
Consider “GATGATTGTTCTCCCAGCTGATGAATTGCGATTTTCGAGTAAACAAATTTTCCTAATCTTTCTGTTCAAGCGCCATCTAC”, for which the binding signal is 1.25 RPM ratio (pull-down/input).
Take “GATGATTGTTCTCCCAGCTGATGAATTTGCGGAGTCGAGTAAACAAATTTTCCTAATCTTTCTGTTCAAGCGCCATCTAC”: the binding signal was 0.799 RPM ratio (pull-down/input).
The value for “GATGATTGTTCTCCCAGCTGATGAATTGCGAAAGTCGAGTAAACAAATTTTCCTAATCTTTCTGTTCAAGCGCCATCTAC” was 1.08 RPM ratio (pull-down/input).
Regarding “GATGATTGTTCTCCCAGCTGATGAATTCTTTAGTTCGAGTAAACAAATTTTCCTAATCTTTCTGTTCAAGCGCCATCTAC”, the binding signal was 0.861 RPM ratio (pull-down/input).
To “GATGATTGTTCTCCCAGCTGATGAATTGACTTAGTCGAGTAAACAAATTTTCCTAATCTTTCTGTTCAAGCGCCATCTAC” belongs 1.03 RPM ratio (pull-down/input).
In the case of “GATGATTGTTCTCCCAGCTGATGAATTACTTTCTTCGAGTAAACAAATTTTCCTAATCTTTCTGTTCAAGCGCCATCTAC”, the binding signal is 1.06 RPM ratio (pull-down/input).
Turning to “GATGATTGTTCTCCCAGCTGATGAATTCTGATTCTCGAGTAAACAAATTTTCCTAATCTTTCTGTTCAAGCGCCATCTAC”, the binding signal is 0.884 RPM ratio (pull-down/input).
On to “GATGATTGTTCTCCCAGCTGATGAATTACCATAGTCGAGTAAACAAATTTTCCTAATCTTTCTGTTCAAGCGCCATCTAC”, for which the binding signal is 0.965 RPM ratio (pull-down/input).
“GATGATTGTTCTCCCAGCTGATGAATTCCCTACGTCGAGTAAACAAATTTTCCTAATCTTTCTGTTCAAGCGCCATCTAC”: the binding signal was 0.821 RPM ratio (pull-down/input).
In the case of “GATGATTGTTCTCCCAGCTGATGAATTTCTTAAGTCGAGTAAACAAATTTTCCTAATCTTTCTGTTCAAGCGCCATCTAC”, the binding signal is 0.87 RPM ratio (pull-down/input).
Regarding “GATGATTGTTCTCCCAGCTGATGAATTACGTCCTTCGAGTAAACAAATTTTCCTAATCTTTCTGTTCAAGCGCCATCTAC”, the binding signal was 0.982 RPM ratio (pull-down/input).
The value for “GATGATTGTTCTCCCAGCTGATGAATTCATGAAGTCGAGTAAACAAATTTTCCTAATCTTTCTGTTCAAGCGCCATCTAC” was 0.839 RPM ratio (pull-down/input).
